From PubChem BioAssay AID686979 (National Center for Advancing Translational Sciences (NCATS), 2013)
Among all 420,000 compounds or so, about 50,000 (12%) were called active. The inconclusive results got no clear call from the source; some entries with a clear call stand among them for comparison. Calls come from the whole dose curve; as a rule, active = well fitted inhibition curve with a large enough effect; inconclusive = small, poorly fitted or top-dose-only effect; inactive = flat fitted curve, though single readings scatter. Potencies of inconclusive entries are left out as doubtful fits.

Assay: qHTS for Inhibitors of human tyrosyl-DNA phosphodiesterase 1 (TDP1): qHTS in cells in presence of CPT; note: nearly all actives have a fitted effect of over 55% in size
Conditions: chicken DT40 Tdp1-/-;hTDP1 cells + 20 nM CPT, ATP luminescence, 48 h; activity change, negative = growth inhibition: at 46.2 µM (top of the series)
Procedure, shortened: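 Chicken DT40 Tdp1-/- cells stably complemented with human TDP1 were seeded at 400 cells/well in medium containing 20 nM camptothecin, exposed to pin-transferred compounds, and grown at 37 °C for at least 48 hr. Viability was read as ATP luminescence.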
% is set by controls: 0 for no effect and ±100 for the full control effect; potency is the fitted concentration of half-maximal effect; tags give direction and shape of the fitted curve.

Compound | activity change, negative = growth inhibition | Potency
Cc1cc(C)c(NC(=O)COC(=O)C2=COCCO2)c(Cl)c1 | inactive: 10.6% | 
COc1cc(NC(=O)c2nc3nc(C)cc(C(F)F)n3n2)c(OC)cc1Cl | inactive: -9.51% | 
Cc1nn(Cc2ccc(Cl)c(Cl)c2)c(C)c1NC(=O)c1sc2ccccc2c1Cl |  | inconclusive [inhibitor, single point]
CC(=O)NC12CC3CC(C)(C1)CC(NC(C)=O)(C3)C2 | inactive: -3.44% | 
CCCCOc1ccc(Cn2c(=O)oc3ccc(C)cc32)cc1OC |  | inconclusive [inhibitor, single point]
COC(=O)c1c(N2C(=O)[C@H]3[C@@H](C2=O)[C@]2(C(=O)Nc4c2ccc(C)c4C)N2CCC[C@@H]32)sc(C)c1C |  | active: 18.4 µM
CCc1nnc(NC(=O)c2nc(SCc3ccccc3F)ncc2Cl)s1 | inactive: -15.8% | 
Cc1nc2ccc(NC(=O)c3ccc(S(=O)(=O)N(C)c4ccccc4)cc3)cc2s1 |  | inconclusive [inhibitor, single point]
COc1cccc(NC(=O)c2ccnc(N3CCC(C(=O)NCc4ccccc4OC)CC3)c2)c1 |  | inconclusive [inhibitor, single point]
COC(=O)c1sccc1NC(=O)c1cc(-c2cccc(C)c2)nc2ccccc12 |  | inconclusive [inhibitor, single point]
CC(=O)c1c(C)[nH]c(C(=O)CSc2nnc3ccccn23)c1C | inactive: 2.2% | 
CCc1noc(C)c1C(=O)N(Cc1ccccc1)c1c(N)n(CCOC)c(=O)[nH]c1=O | inactive: 2.85% | 
CC(=O)c1cn(Cc2ccccc2)c(=O)n(Cc2ccc(F)cc2)c1=O | inactive: 1.24% | 
O=S1(=O)c2ccccc2N(Cc2ccc(Cl)cc2)c2ccccc21 |  | inconclusive [inhibitor, single point]
Cc1cccc(C)c1N1CCN(S(=O)(=O)N(C)C)CC1 |  | inconclusive [inhibitor, single point]
CCCC[C@@H]1CN=C(N)N1CC(C)(C)C |  | inconclusive [inhibitor, single point]
C/C(=N\NC(=O)c1ccccc1[N+](=O)[O-])c1c(O)cc(C)oc1=O |  | inconclusive [inhibitor, single point]
CCc1c(C)nc2nncn2c1NCc1ccccc1 |  | inconclusive [inhibitor, single point]
CCOC(=O)N=S(N)(=O)c1ccccc1 (stereo unspecified) | inactive: -7.2% | 
CCOc1ccc(-n2c(=O)c3ccccc3c3ccccc3c2=O)cc1 | inactive: 2.86% | 
O=C(CCCCCn1c(=O)c2sccc2n(Cc2ccc(Cl)cc2)c1=O)NCc1ccc2c(c1)OCO2 |  | inconclusive [inhibitor, single point]
Cc1ccc(S(=O)(=O)NN=Cc2c(O)ccc3ccccc23)cc1 |  | inconclusive [inhibitor, single point]
CC(C)(C)c1ccc(C(O)c2ncc(-c3ccc4ccccc4c3)[nH]2)cc1 (stereo unspecified) |  | inconclusive [inhibitor, single point]
CCOC(=O)COc1ccc2ccccc2c1/C=C/[N+](=O)[O-] |  | active: 5.17 µM

Compound | activity change, negative = growth inhibition | Potency
Cc1ccnc(NC(=O)Cc2ccc(-c3ccccc3)cc2)c1 |  | inconclusive [inhibitor, single point]
O=C(CC(c1ccccc1)c1cc(Cl)ccc1O)N1CCCC1 (stereo unspecified) |  | inconclusive [inhibitor, partial curve]
CCCCNC(=S)N/N=C1\C(=O)c2cccc3cccc1c23 |  | inconclusive [inhibitor, single point]
O=C(c1cccc(C(F)(F)F)c1)C1CCCN(C(=O)CCn2cnnn2)C1 (stereo unspecified) | inactive: 2.3% | 
CN(C)CCCNc1nc(-c2ccccc2)c2c(c1C#N)CC(C)(C)OC2 |  | inconclusive [inhibitor, single point]
C#CCN(C[C@@H]1[C@@H](OC(=O)NCc2ccccc2)[C@@H](OC(=O)NCc2ccccc2)Cn2c(=O)n(CCCCCC)c(=O)n21)S(=O)(=O)c1ccc(C)cc1 |  | inconclusive [inhibitor, single point]
COc1ccc(Cl)cc1C(=O)Nc1nnc2n1CCS2 | inactive: -19.1% | 
COc1cccc(/C=C2/CCC(CN(C)C)C2=O)c1 (stereo unspecified) |  | active: 2.31 µM
COc1ccc(NC(=O)COC(=O)c2cc(OC)c(OC)cc2NC(=O)c2ccco2)cc1OC |  | inconclusive [inhibitor, single point]
COc1cc(C(=S)N2CCOCC2)cc(OC)c1OS(=O)(=O)c1ccc(NC(C)=O)cc1 | inactive: -17% | 
C=CCOc1ccc(Cl)cc1-c1noc(-c2csc([C@H]3C[C@H](O)[C@@H](CO)O3)n2)n1 |  | inconclusive [inhibitor, single point]
CCOCCCNC(=O)c1cn(C)c2ccc(S(=O)(=O)N3CCCCC3)cc2c1=O | inactive: -3.64% | 
COc1ccc(CN2C(=O)c3ccccc3C2c2nnnn2Cc2ccccc2)cc1OC (stereo unspecified) |  | inconclusive [inhibitor, single point]
CCc1cc2c(CN(C)Cc3ccccc3F)cc(=O)oc2cc1O |  | inconclusive [inhibitor, single point]
Nc1nnc(SCc2ccccc2F)s1 |  | inconclusive [inhibitor, single point]
CC(=O)Nc1ccccc1-c1nc(CNC(=O)c2cccc(-n3cccn3)c2)c(C)o1 | inactive: 10.2% [at 9.04 µM] | 
O=C(NCCc1ccc(Cl)cc1)c1ccc2c(c1)N(Cc1ccc(Cl)cc1)C(=O)CS2 |  | inconclusive [inhibitor, single point]
C=Cc1ccc(Cn2c(=O)n(-c3cccc(Cl)c3)c(=O)c3c4c(sc32)CN(C(C)=O)CC4)cc1 |  | inconclusive [inhibitor, single point]
COc1ncnc2c1ncn2CCCN(C)Cc1ccco1 | inactive: -20% | 
CC(=O)c1ccc(NC(=S)NCc2cccnc2)cc1 | inactive: -23.1% | 
CCCc1cc(-c2nc(N)ncc2-c2ccc3c(c2)OCCCO3)c(O)cc1OC |  | inconclusive [inhibitor, single point]
Cc1cc(/C=C2/SC(=S)N(c3ccc([N+](=O)[O-])cc3)C2=O)c(C)n1-c1cccnc1 |  | active: 1.64 µM
CC(C)C(NS(=O)(=O)c1cccc(C(F)(F)F)c1)C(=O)N1CCc2ccccc2C1 (stereo unspecified) |  | inconclusive [inhibitor, single point]
Nc1ncnc2c1ncn2[C@@H]1O[C@H](CNC(=O)[C@@H](N)CO)[C@@H](O)[C@H]1O | inactive: -14.2% | 

Compound | activity change, negative = growth inhibition | Potency
O=C(c1ccco1)N1CCN(C(=O)c2ccc(COc3ccc(F)cc3)o2)CC1 |  | inconclusive [inhibitor, partial curve]
CSCCC(c1nnnn1C(C)(C)C)N1CCN(C/C=C/c2ccccc2)CC1 (stereo unspecified) |  | inconclusive [inhibitor, single point]
COC(=O)c1ccsc1NC(=O)CN1CCN(c2ccc(F)cc2)CC1 |  | inconclusive [inhibitor, single point]
CC(OC(=O)C1=COCCO1)C(=O)Nc1cc(S(=O)(=O)N2CCCCC2)ccc1Cl (stereo unspecified) |  | inconclusive [inhibitor, single point]
O=c1cc(NCCc2ccccc2)c2ccccc2o1 |  | active: 10.3 µM
CCN(Cc1ccccc1)Cc1c(O)ccc2oc(C)c(C(=O)Nc3ccc(C)cc3C)c12 |  | active: 7.31 µM
COCCCNC(=O)CCn1c(=O)c2ccccc2n(CC(=O)Nc2cc(Cl)ccc2OC)c1=O | inactive: -9.95% | 
O=[N+]([O-])c1ccc(Sc2cccc3cccnc23)cc1 |  | inconclusive [inhibitor, single point]
COc1cccc(CN2CC(C(=O)NCCCc3ccc(C)cc3)CCC2=O)c1 (stereo unspecified) |  | inconclusive [inhibitor, single point]
COc1cccc(NC(=O)Nc2nnc(N3C(C)CCCC3C)s2)c1 (stereo unspecified) |  | inconclusive [inhibitor, single point]
O=C(CN1CCN(S(=O)(=O)c2ccccc2)CC1)N1CCc2ccccc21 | inactive: -7.96% | 
CCCCN(CC)c1nc(-c2ccccc2F)nc2ccccc12 |  | inconclusive [inhibitor, single point]
COc1ccc(-n2cc(CNCC3CCOCC3)c(-c3cccc(F)c3)n2)cc1 |  | inconclusive [inhibitor, single point]
COc1ccc(C(=O)n2c(SC)nc3cc4c(cc32)OCCO4)cc1 |  | inconclusive [inhibitor, single point]
Cc1cc(NCc2ccccn2)n2ncc(-c3ccc(Cl)cc3)c2n1 |  | active: 0.58 µM
CC(C(=O)N1CCN(c2ccc(Cl)cc2)CC1)c1ncc(C(F)(F)F)cc1Cl (stereo unspecified) |  | active: 18.4 µM
O=C(Nc1ccccc1)c1ccc(Cn2cc(C(F)(F)F)ccc2=O)cc1 | inactive: -9.64% | 
Cc1cc(C(=O)N2CCCC(C(=O)c3cccc4ccccc34)C2)nc(C)n1 (stereo unspecified) |  | inconclusive [inhibitor, single point]
COCCCn1c(SCC(=O)N2CCOCC2)nnc1-c1ccco1 | inactive: -1.93% | 
Cn1cccc1C(=O)C(=O)Nc1ccccc1C(F)(F)F | inactive: -23.5% | 
CN1C(C(=O)Nc2cccc(O)c2)=CC(c2ccco2)=NS1(=O)=O |  | inactive
Cc1cc(C)c(C#N)c(N2CCN(C(=O)C3COc4ccccc4O3)CC2)n1 (stereo unspecified) |  | inconclusive [inhibitor, single point]
N#Cc1c(-c2ccco2)cc(-c2ccccn2)nc1N |  | inconclusive [inhibitor, single point]
